Laboratory results taken from the supplement of paper PMC11417369.
This is one part of the list.

Test system: PF3D7_0420300 AP2 domain 1 (GST-tagged)
Test: gcPBM binding intensity (ln(normalized median fluorescence intensity)); higher = stronger DNA binding
Method in brief: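 GST-tagged P. falciparum DNA-binding domains, expressed in E. coli (about 25 μg on average), were applied for 1 h to an Agilent 4 × 180k array of primer-extended double-stranded 36-bp intergenic genomic probes plus negative controls. The binding buffer was 1× PBS with 1% milk, 0.2 mg/ml BSA, 0.5% salmon testes DNA and 0.03% Triton X-100. Bound protein was detected with Alexa488 anti-GST antibody and scanned at 488 nm. Binding intensity is the highest Masliner-normalised natural-log median intensity across replicate spots of either probe orientation.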

Sequence | gcPBM binding intensity (ln)
GTATAATATTCATATTCACACATTAAAATATATTTA [CACACA_site4879] | 9.22
AGATGAACTAAAAAGGTGCTAAATATGTGACCACTG [GTGCAC_site9406] | 9.26
TAATTAAATATTTCAGTGCATTATTTTATGATCCAT [GTGCAC_site9456] | 9.19
TACATACACAGACACACACACATATAAATATAAATA [CACACA_site7641] | 9.95
ATTTAGAATGTTCCTACACACCAAATTTAAGTGTGC [CACACA_site7161] | 9.45
TTTTTTTTAGTATGAACACACATATAGATTATAAAA [CACACA_site7391] | 8.94
ATAAGAAGAAGAAAAACACACATATGTAAATATATA [CACACA_site3138] | 9.66
ATATTATAGATATACACACACACATGCATGCACATA [CACACA_site6203] | 10.1
TATATATCTTTATGCACACACAAAGAAAATTTTCCT [CACACA_site7366] | 9.55
ATTAATTTAATTTGAATTATTTTATTATATTATTAT [XGTACX_negctrl_site10] | 9.23
GTTTGAATATATCAGGTGCATTTATAATTCATATGA | 9.35
ATATTATATTATTAATGTACATATATATAATTTTAA [XGTACX_site4974] | 9
AGAAATGAAATCCAAAAACGAGGAACCAATAACGCA [CACACA_negctrl_site1758] | 9.79
TCTTATCCATATATTACACACTATATATAGAAATTA [CACACA_site291] | 9.34
AAGGCAAACAAACACACACACATATATACCTATATA [CACACA_site5203] | 10
AAAGAAAAAAAAATTACACACATATATTATAGATAT [CACACA_site7495] | 9.62
TCCTTCGAAACTAAAATTCATTTAAAATATTGATAT [CACACA_negctrl_site369] | 8.83
TAGGTCCTCATTTTATGTACATAAAGAAATATGATT [XGTACX_site4138] | 9.08
TACATACATACATACACACACACATATATATATATA [CACACA_site42] | 9.96
ATATAAACATTTAGTAATCCATATAGGTACTACTGA [CACACA_negctrl_site1249] | 9.15
AAAAAAAATATATAAACACACATATTTATATACGCA [CACACA_site1631] | 9.48
TATTTATAGATATATACACACATATACATATTGTTT [CACACA_site7611] | 9.52

Sequence | gcPBM binding intensity (ln)
ATATATGCTAATATATGTACTGATTATATCTCTTCA [XGTACX_site7156] | 9.16
AAATTAGACTATAATACACACATAAAAAAAAAAAAA [CACACA_site6155] | 9.6
AGATATCTTGTGAAATAAAAAAAATAATTGCTTATA [CACACA_negctrl_site798] | 8.94
CCCTTTTTTTTTTAATGTACATATAATTATATATTT [XGTACX_site8568] | 9.47
GGAAACCTTTTTTTTACACACAATATATTAAGACTT [CACACA_site4899] | 9.42
AATTGTACGTAGGGGTATAAAAGCTTAAAAATGGGG [CACACA_negctrl_site1392] | 9.63
AAAGCAAAAGGAAAATAACCAACCCTAATTAACACA [CACACA_negctrl_site530] | 9.5
TAGTATTAAATATATACACACATATATACATATAGA [CACACA_site2154] | 9.52
TTAATTTTTTTTTCTTGTACACACTATTTTATAATT [XGTACX_site8783] | 9.6
GCAGCAGCATTTTCAGTGCATTATTATATTGTTCAT [GTGCAC_site9926] | 9.39
TATTATAATACTTATTGTACTTTTAGGTTAATTTAT [XGTACX_site995] | 9.34
GTAATAAAATGACATACATGCATTACAATTATGTAA [TGCATGCA_site220] | 9.1
GTTGCACAATGTTACACACACAATATATATCGTTAA [CACACA_site1275] | 9.92
GTGTACTTTTAAATAGTGCATTTTACAATAATAAAA [GTGCAC_site9653] | 8.84
GATTAATTTAAAAAATGTACATTTTATTGTATAACC [XGTACX_site5539] | 9.11
TAAACACCCATATAAACACACATACATACATACATA [CACACA_site5383] | 9.7
CCAAGAAACCAAAAAAGTACATACATGGTTATAATT [XGTACX_site4249] | 9.36
ACAATATGTATATATATATATATGCAAATGTATAAA [CACACA_negctrl_site53] | 9.3
ATATTAAATTCAATTTAATGTTTTGTGAATTTTAGA [CACACA_negctrl_site1421] | 8.95
TTAAATGGAAAAATATGTACATATATATATATATTT [XGTACX_site2286] | 9.13
TGAACTCATAGATTTAGTACATATATAAAAAAATTC [XGTACX_site1692] | 9.06
TTTGTTAAAAATATATTATGAATAAAAATATATTTT [CACACA_negctrl_site170] | 8.8
